Laboratory results reported in patent US7060277B2 (priority 1996, dated 2006).
Where “and” joins values, the source holds several entries; their conditions need not be identical. Equal entries are not always repeated. Part of at least one peptide drawing is inferred or uncertain, most often the ends. Some of these results come from one statement about several compounds together. Ends that are not written are not given here.

System: lethal dose of SEB in D-galactosamine-treated mouse model
Set-up: species or system BALB/c mice
Settings: in vivo

Row | Sequence | Percent Survival | protection of mice against a lethal dose of SEB
1 | YNKKKATVQELD [p12(150–161), Y N K K K A T V Q E L D] | 22–29 | 10%
2 | TNKKKVTAQELD [pSEB(150–161), T N K K K V T A Q E L D] | 22–29 and 22 | 
